# By IC50 is meant the dose at which the fit gives 50% viability; where the fit passes the top or lowest dose, that dose stands as a limit. For AUC the same curve is integrated over the 256-fold range of doses and scaled to a fraction; the more sensitive the line, the further below 1. For part of these data: An inferred top dose comes from the curve model; the source does not state it.
# Columns and labels:
# Assay in all cases: Viability of human cancer cell lines after 72 h of drug (GDSC screen)
# JW-7-52-1 = compound: CCC(=O)N1CCN(c2ccc(-n3c(=O)ccc4cnc5ccc(-c6cnc7ccccc7c6)cc5c43)cc2C(F)(F)F)CC1 [JW-7-52-1]; conditions: top dose 1.2 µM; top dose inferred
# Protocol: (§1)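 Human cancer cell lines in 384-well plates, medium with 10% serum, drug for 72 h over a 256-fold dose range (nine 2-fold or five 4-fold steps up to the top dose). Adherent lines were fixed and stained with the nucleic acid dye Syto60, suspension lines read with resazurin; signal relative to control wells, capped at 0 and 100%. One two-parameter sigmoid per drug and line, fitted in a mixed model over all curves with the slope shared within a line.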
# Z-LLNle-CHO = compound: CCCC[C@@H](C=O)NC(=O)[C@H](CC(C)C)NC(=O)[C@H](CC(C)C)NC(=O)OCc1ccccc1 [Z-LLNle-CHO]; conditions: top dose 2.56 µM; top dose inferred
# Protocol: as §1
# ZG-10 = compound: CN(C)C/C=C/C(=O)Nc1ccc(C(=O)Nc2cccc(Nc3nccc(-c4cccnc4)n3)c2)cc1 [ZG-10]; conditions: top dose 10 µM; top dose inferred
# Protocol: as §1
# Tubastatin A = compound: CN1CCc2c(c3ccccc3n2Cc2ccc(C(=O)NO)cc2)C1 [Tubastatin A]; conditions: top dose 20 µM
# Protocol: as §1
# Rapamycin = compound: CO[C@H]1C[C@@H]2CC[C@@H](C)[C@@](O)(O2)C(=O)C(=O)N2CCCC[C@H]2C(=O)O[C@H]([C@H](C)C[C@@H]2CC[C@@H](O)[C@H](OC)C2)CC(=O)[C@H](C)/C=C(\C)[C@@H](O)[C@@H](OC)C(=O)[C@H](C)C[C@H](C)/C=C/C=C/C=C/1C [Rapamycin]; conditions: top dose 0.1 µM; top dose inferred
# Protocol: as §1
# XL-880 = compound: COc1cc2c(Oc3ccc(NC(=O)C4(C(=O)Nc5ccc(F)cc5)CC4)cc3F)ccnc2cc1OCCCN1CCOCC1 [XL-880]; conditions: top dose 5.12 µM; top dose inferred
# Protocol: as §1
# Temozolomide = compound: Cn1nnc2c(C(N)=O)ncn2c1=O [Temozolomide]; conditions: top dose 30 µM
# Protocol: as §1
# CI-1040 = compound: O=C(NOCC1CC1)c1ccc(F)c(F)c1Nc1ccc(I)cc1Cl [CI-1040]; conditions: top dose 10 µM; top dose inferred
# Protocol: as §1
# IPA-3 = compound: Oc1ccc2ccccc2c1SSc1c(O)ccc2ccccc12 [IPA-3]; conditions: top dose 32 µM; top dose inferred
# Protocol: as §1
Cell Line,AUC (JW-7-52-1),IC50 (JW-7-52-1),AUC (Z-LLNle-CHO),IC50 (Z-LLNle-CHO),AUC (ZG-10),IC50 (ZG-10),AUC (Tubastatin A),IC50 (Tubastatin A),AUC (Rapamycin),IC50 (Rapamycin),AUC (XL-880),IC50 (XL-880),AUC (Temozolomide),IC50 (Temozolomide),AUC (CI-1040),IC50 (CI-1040),AUC (IPA-3),IC50 (IPA-3)
"LP-1 (myeloma, suspension)",0.55,100 nM,0.979,> 2560 nM,0.834,5030 nM,0.888,15900 nM,0.917,> 100 nM,0.828,2450 nM,0.993,> 30000 nM,0.971,> 10000 nM,0.882,24000 nM
"NB-4 (acute myeloid leukaemia, suspension)",0.697,238 nM,0.991,> 2560 nM,0.413,379 nM,0.623,2540 nM,0.989,> 100 nM,0.523,365 nM,0.978,> 30000 nM,0.256,147 nM,0.717,7170 nM
"NCI-H345 (small cell lung carcinoma, suspension)",0.863,1120 nM,0.937,> 2560 nM,0.879,> 10000 nM,0.969,> 20000 nM,0.98,> 100 nM,0.948,> 5120 nM,0.976,> 30000 nM,0.969,> 10000 nM,0.972,> 32000 nM
"CGTH-W-1 (thyroid, adherent)",0.59,132 nM,0.939,> 2560 nM,0.658,1710 nM,0.985,> 20000 nM,0.929,> 100 nM,0.559,463 nM,0.985,> 30000 nM,0.854,7850 nM,0.986,> 32000 nM
"TE-5 (oesophagus, adherent)",0.417,43 nM,0.749,943 nM,0.699,2490 nM,0.983,> 20000 nM,0.838,82.6 nM,0.842,4430 nM,0.981,> 30000 nM,0.842,8660 nM,0.909,> 32000 nM
"TUR (B-cell lymphoma, suspension)",0.965,> 1200 nM,0.97,> 2560 nM,0.525,726 nM,0.852,13700 nM,0.957,> 100 nM,0.54,408 nM,0.888,29500 nM,0.947,> 10000 nM,0.974,> 32000 nM
"MN-60 (B-cell leukaemia, suspension)",0.792,568 nM,0.959,> 2560 nM,0.757,3570 nM,0.905,> 20000 nM,0.814,57.4 nM,0.805,2700 nM,0.979,> 30000 nM,0.98,> 10000 nM,0.907,> 32000 nM
"LB2518-MEL (melanoma, adherent)",0.562,112 nM,0.763,970 nM,0.926,> 10000 nM,0.974,> 20000 nM,0.987,> 100 nM,0.808,2810 nM,0.986,> 30000 nM,0.53,757 nM,0.968,> 32000 nM
"COLO-684 (endometrium, suspension)",0.461,57.9 nM,0.837,2020 nM,0.644,1640 nM,0.933,> 20000 nM,0.747,35.4 nM,0.698,1250 nM,0.962,> 30000 nM,0.92,> 10000 nM,0.85,29000 nM
"LB373-MEL-D (melanoma, adherent)",0.61,149 nM,0.733,725 nM,0.821,5620 nM,0.975,> 20000 nM,0.96,> 100 nM,0.821,2880 nM,0.989,> 30000 nM,0.843,6860 nM,0.949,> 32000 nM
"NCI-H847 (small cell lung carcinoma, adherent)",0.794,439 nM,0.837,1270 nM,0.658,1560 nM,0.851,11100 nM,0.959,> 100 nM,0.422,204 nM,0.992,> 30000 nM,0.983,> 10000 nM,0.662,5100 nM
"NCI-SNU-5 (stomach, suspension)",0.62,161 nM,0.877,> 2560 nM,0.883,> 10000 nM,0.989,> 20000 nM,0.965,> 100 nM,0.491,303 nM,0.972,> 30000 nM,0.796,4750 nM,0.986,> 32000 nM
"SLVL (B-cell lymphoma, suspension)",0.472,62.7 nM,0.791,1230 nM,0.62,1360 nM,0.875,> 20000 nM,0.649,16.6 nM,0.595,592 nM,0.937,> 30000 nM,0.883,> 10000 nM,0.804,17200 nM
"NCI-H1395 (lung adenocarcinoma, adherent)",0.841,> 1200 nM,0.946,> 2560 nM,0.765,4830 nM,0.964,> 20000 nM,0.903,> 100 nM,0.665,1070 nM,0.974,> 30000 nM,0.971,> 10000 nM,0.972,> 32000 nM
"CL-11 (large intestine, adherent)",0.922,> 1200 nM,0.929,> 2560 nM,0.986,> 10000 nM,0.987,> 20000 nM,0.979,> 100 nM,0.822,3500 nM,0.986,> 30000 nM,0.511,670 nM,0.98,> 32000 nM
"SK-MM-2 (myeloma, suspension)",0.576,123 nM,0.812,1450 nM,0.831,6710 nM,0.966,> 20000 nM,0.933,> 100 nM,0.586,555 nM,0.983,> 30000 nM,0.978,> 10000 nM,0.889,> 32000 nM
"OVCAR-4 (ovary, adherent)",0.371,27.7 nM,0.768,1450 nM,0.76,5260 nM,0.908,> 20000 nM,0.67,23.6 nM,0.67,1210 nM,0.973,> 30000 nM,0.813,9160 nM,0.836,> 32000 nM
"ATN-1 (T-cell lymphoblastic leukaemia, suspension)",0.374,34.5 nM,0.683,499 nM,0.731,2690 nM,0.821,10600 nM,0.872,84.5 nM,0.707,1170 nM,0.837,18200 nM,0.914,> 10000 nM,0.928,> 32000 nM
"TGW (neuroblastoma, adherent)",0.76,367 nM,0.89,2210 nM,0.991,> 10000 nM,0.724,4840 nM,0.973,> 100 nM,0.524,368 nM,0.984,> 30000 nM,0.865,6840 nM,0.76,9830 nM
"LS-1034 (large intestine, adherent)",0.7,293 nM,0.917,> 2560 nM,0.939,> 10000 nM,0.928,> 20000 nM,0.874,> 100 nM,0.654,899 nM,0.985,> 30000 nM,0.863,> 10000 nM,0.967,> 32000 nM
"ONS-76 (medulloblastoma, adherent)",0.601,145 nM,0.751,902 nM,0.629,1470 nM,0.858,18500 nM,0.951,> 100 nM,0.796,2610 nM,0.983,> 30000 nM,0.614,1320 nM,0.984,> 32000 nM
"DMS-114 (small cell lung carcinoma, adherent)",0.712,329 nM,0.968,> 2560 nM,0.736,3310 nM,0.983,> 20000 nM,0.743,35 nM,0.63,772 nM,0.979,> 30000 nM,0.921,> 10000 nM,0.972,> 32000 nM
"D-263MG (glioma, adherent)",0.72,366 nM,0.836,2240 nM,0.611,1350 nM,0.973,> 20000 nM,0.968,> 100 nM,0.753,2040 nM,0.976,> 30000 nM,0.76,4230 nM,0.963,> 32000 nM
"NCI-H1770 (non-small cell lung carcinoma, suspension)",0.887,1050 nM,0.884,2170 nM,0.784,3690 nM,0.966,> 20000 nM,0.992,> 100 nM,0.628,686 nM,0.985,> 30000 nM,0.99,> 10000 nM,0.777,11200 nM
"HSC-39 (stomach, suspension)",0.796,475 nM,0.9,2480 nM,0.816,4580 nM,0.864,13600 nM,0.991,> 100 nM,0.974,> 5120 nM,0.991,> 30000 nM,0.956,> 10000 nM,0.989,> 32000 nM
"MLMA (hairy cell leukaemia, semi-adherent)",0.539,95.6 nM,0.875,2550 nM,0.509,663 nM,0.758,6990 nM,0.756,34.3 nM,0.698,1160 nM,0.977,> 30000 nM,0.927,> 10000 nM,0.762,11500 nM
"NB13 (neuroblastoma, adherent)",0.427,48.6 nM,0.767,848 nM,0.704,2160 nM,0.887,17900 nM,0.459,4.9 nM,0.536,396 nM,0.99,> 30000 nM,0.925,> 10000 nM,0.658,5180 nM
"NB14 (neuroblastoma, adherent)",0.986,> 1200 nM,0.961,> 2560 nM,0.594,1110 nM,0.986,> 20000 nM,0.927,> 100 nM,0.391,164 nM,0.988,> 30000 nM,0.877,9000 nM,0.529,2390 nM
"8-MG-BA (glioma, adherent)",0.437,51 nM,0.779,976 nM,0.694,2110 nM,0.926,> 20000 nM,0.897,> 100 nM,0.649,805 nM,0.925,> 30000 nM,0.775,3710 nM,0.902,> 32000 nM

# Reference: the supplement of paper PMC4967469
